Reference: the supplement of paper PMC10498489
About 330 (14%) of roughly 2,300 compounds showed activity.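 How the source made its calls: active = median modified Z-score above 1.96; inactive = 1.96 or below.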 This is a selection; strong and weak results do not stand in their true shares.

system: HepG2 Srxn1-GFP reporter cells (+30 nM CDDO-Me); test: Srxn1-GFP intensity median modified Z-score relative to plate median; higher = stronger NRF2 / oxidative stress reporter activation, active = hit call of the paper; details: 10 µM; exposure time: 24h
In short: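 Each value is the replicate median of a per-plate modified Z-score for GFP intensity in HepG2 Srxn1-GFP BAC reporter cells. The cells (20,000 per well, 96-well plates, three replicate plates) received compound at 10 μM together with an NRF2 activator at 30 nM for 24 h, in ≤0.1% DMSO. Cytoplasmic GFP was quantified per cell from confocal images of formaldehyde-fixed, Hoechst-stained cells, leaving out images with fewer than 100 cells, and scaling used 1.4826 × median absolute deviation.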

| SMILES | Srxn1-GFP intensity median modified Z-score |
| --- | --- |
| CCCCCCCCCCOc1cc2c(=O)c(C(=O)OCC)c[nH]c2cc1OCC [euspeclibcmpd775] | inactive: 0 |
| CCN(CC)C(=O)c1ccc(O)c(OC)c1 [euspeclibcmpd904] | inactive: 0.0293 |
| O=C(c1ccc(F)cc1)C1CCN(CCn2c(=O)[nH]c3ccccc3c2=O)CC1 [euspeclibcmpd750] | inactive: 0.369 |
| CNCCc1ccccn1 [euspeclibcmpd332] | inactive: 0.673 |
| CC=CC(=O)N(CC)c1ccccc1C [euspeclibcmpd735] | inactive: -0.287 |
| CC(=O)NC1C(O)OC(CO)C(O)C1O (configuration not stated) [euspeclibcmpd1995] | inactive: -0.204 |
| CC(=O)OC/C=C(\C)CC/C=C(\C)CC/C=C(\C)CC/C=C(\C)CC/C=C(\C)CC/C=C(\C)CC/C=C(\C)CC/C=C(\C)CCC=C(C)C [euspeclibcmpd1594] | inactive: -0.267 |
| NCCCCCC(=O)O [euspeclibcmpd19] | inactive: 0.118 |
| CCN(CC)C(C)CN1c2ccccc2Sc2ccccc21 (configuration not stated) [euspeclibcmpd123] | inactive: 0.0767 |
| CCCNC(=O)NS(=O)(=O)c1ccc(Cl)cc1 [euspeclibcmpd60] | inactive: -0.231 |
| CC1(C)CC2C1CC[C@]1(C)CCC3C(C(=O)O)CC(=O)O[C@@]32C1 (some centres not stated) [euspeclibcmpd1368] | inactive: -0.0835 |
| Clc1cccc(Cl)c1NC1=NCCN1 [euspeclibcmpd70] | inactive: -0.00531 |
| O=C(O)CN(CCN(CC(=O)O)CC(=O)O)CC(=O)O | active: 2.26 |
| CCN(CC)CCOCCOC(=O)C1(c2ccccc2)CCCC1 [euspeclibcmpd389] | inactive: -0.0174 |
| CCN(CCCCOC(=O)c1ccc(OC)c(OC)c1)C(C)Cc1ccc(OC)cc1 (configuration not stated) [euspeclibcmpd380] | inactive: 0.0677 |
| Cc1cc(C(C)(C)C)cc(C)c1CC1=NCCN1 [euspeclibcmpd322] | inactive: -0.608 |
| CC(=O)Nc1ccc(OC(=O)c2ccccc2O)cc1 [euspeclibcmpd1988] | inactive: -0.258 |
| O=c1c(O)c(-c2ccc(O)cc2)oc2cc(O)cc(O)c12 [euspeclibcmpd2425] | inactive: -0.0385 |
| O=C(CCBr)N1CCN(C(=O)CCBr)CC1 [euspeclibcmpd576] | active: 2.59 |
| COc1cc(OC)c2ccc(=O)oc2c1 [euspeclibcmpd1704] | inactive: 0.0648 |
| Cc1ccccc1-n1cnnc1SCC(=O)c1ccc2c(c1)OCCO2 | inactive: 1.22 |
| CC12CCC3c4ccc(O)cc4CC(CCCCCCCCC[S+]([O-])CCCC(F)(F)C(F)(F)F)C3C1CCC2O (configuration not stated) [euspeclibcmpd1981] | inactive: -0.582 |
